Read counts are not given, so values of variants with three or more changes are uncertain.
B1: CPEB3 Ribozyme (parent)
chain: UAACAGGGGGCCACAGCAGAAGCGUUCACGUCGCAGCCCCUGUCAGAUUCUGGUGAAUCUGCGAAUUCUGCUGUAUAUCUC

Variants of: B1
Experiment: self-cleavage, relative activity (ratio to wild type); higher = more cleavage; in vitro, sequencing
Procedure, shortened: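 For each CPEB3 ribozyme variant, relative activity is its cleaved/total read fraction divided by the unmutated ribozyme's. Barcoded error-prone PCR libraries were transcribed by T7 RNA polymerase (5 hours, 37°C) and held in DNase I for 15 min before an EDTA stop, with cleavage occurring throughout. Template-switching reverse transcription and Illumina sequencing were used to read the RNAs. A 5-read minimum applied, and results are the mean of three batches.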

| Variant | self-cleavage |
| --- | --- |
| C40A U58C A64C | 0.04 |
| U41C A64G U80G | 1.05 |
| C40U U74C U80C | 0.75 |
| C39G A64U U72A | 0.05 |
| U41C A47U U60A U78A | 0.17 |
| U41A U74G A75U U80C | 0.44 |
| U41C U49C A57U U72C | 0.25 |
| U41A A64U U67C | 0.35 |
| C39G A64U U67A | 0.09 |
| U41C U43C U51C A57G U67C U74A | 0.05 |
| U41A A47G G55A | 0.07 |
| U41C A45G A56G | 0.54 |
| U41C U51A U54A A56U A64G U69C | 0.72 |
| U41C U43C A47U U54C | 0.16 |
| C40G U54C A56G A65U | 0.08 |
| U41C G46U U78C | 0.3 |
| U41C A77G U80C | 1.1 |
| C40U G46U U78C | 0.23 |
| C40A U43C U51C | 0.14 |
| C40A A47U U67C | 0.08 |
| U41A U67A U78A | 0.35 |
| C39G A57G U78C | 0.13 |
| U41C A47G U67C | 0.35 |
| U41C A45U A57C | 0.08 |

| Variant | self-cleavage |
| --- | --- |
| U41A U43C U54C U80C | 0.19 |
| C40U G42A U51C A56G G61A | 0.1 |
| U41C C44U G46A | 0.21 |
| U41A A57G U60A | 0.07 |
| U41A U51A U60C | 0.2 |
| U41C C79A U80C | 1.17 |
| U41C U51C U67C U76C | 0.42 |
| U41A U43C U48C | 0.26 |
| U41C A45G A64G U67C | 0.38 |
| U41A U49C C71G U72G A75C | 0.09 |
| U41A A45G U51A | 0.18 |
| U41A A75G A77G | 0.04 |
| C40U U66C U67A C68U U76C U80C | 0.1 |
| C39U U54C A64G | 0.34 |
| U41A U49C U72C | 0.26 |
| U41C A75G U76C | 1.08 |
| U41C A47U A57G A65U | 0.11 |
| C40A A57U U60C U66A A75C | 0.14 |
| U41A U49C A56G A64G | 0.11 |
| U41A U51C U72C | 0.25 |
| C40U G63U U72G | 1.12 |
| U41C U43A A45G U72C U80C | 0.6 |
| U41C U43A U66A U78G | 0.24 |
| U41C C50G A56G | 0.67 |

| Variant | self-cleavage |
| --- | --- |
| U41A G55A U76C | 0.06 |
| U41C U43C U51A | 0.47 |
| U41C C59A U67C U72G U78A | 0.08 |
| U41C G46U U66C U80C | 0.1 |
| U41A A45C A75U | 0.19 |
| U41C A47G U51A | 1.13 |
| U41A U43C U74A | 0.28 |
| U41C A57G U67C A77U | 0.3 |
| U41C A57U U78C | 0.81 |
| U41A U48C U76A | 0.08 |
| C40U A56U A57C | 0.16 |
| U41A C44A U60A A77U | 0.19 |
| U41A A56U U74A | 0.44 |
| U41A A56C U67C A75G C81A | 0.11 |
| U41C A47C U51C A65U | 0.08 |
| U41A U66C U78A | 0.09 |
| C40U U54G U74A | 0.72 |
| C40G A45U U67C | 0.15 |
| U41A A45G U60G A64C | 0.1 |
| C40U U43A U48C | 0.27 |
| U41C U43A U51A U69C | 0.88 |
| U41A U51A U72C | 0.26 |
| U41A U72A U76C | 0.13 |
| U41A U54A U80C | 0.34 |

| Variant | self-cleavage |
| --- | --- |
| U41C A56C U58C U67A | 0.24 |
| U41A A45G U51A A57G U67C | 0.15 |
| C40U A47G A64U | 0.12 |
| C40A A64G U78C | 0.07 |
| U41C U49C A56G | 1.14 |
| U41C U43C U72C A77G | 0.28 |
| C40U A56G U67C | 0.11 |
| C39G U43A U58A U67C A75G U80C | 0.04 |
| C39A U60A G61A U78C | 0.43 |
| C40U U49A U66C | 0.29 |
| C40A U67A U80C | 0.13 |
| C40A U43A U78G | 0.15 |
| U41C A45U U49C U78A | 0.1 |
| U41A U60C U69G | 0.09 |
| C39U U49A U51G U69A U74C | 0.09 |
| U41C A56U C68A | 0.36 |
| U41A A56G U80C | 0.32 |
| U41A U49C U58C C62U G70A | 0.1 |
| C40A U41A A45U U72C | 0.28 |
| U41C U51A A64G A65G | 0.08 |
| U41A U54G U80C | 0.23 |
| U41A A56U A64G | 0.08 |
| C40A A45G A56G | 0.24 |
| U41A U43G U67A | 0.2 |

| Variant | self-cleavage |
| --- | --- |
| C40U A65G U72C | 0.36 |
| C40U A47G G63U U78C | 0.47 |
| U41C A47G U58C U76A A77C | 0.29 |
| U41C C50A C68U | 0.95 |
| U41C U48A U78C | 0.52 |
| U41A U49A U51A U72A | 0.16 |
| C39U A56G C59A U80C | 0.16 |
| U41A U60C U74C | 0.17 |
| C40U U41C U67C | 0.16 |
| U41C U48C A75G | 0.63 |
| C39G C50G U74A | 0.05 |
| U41A G46C A64G | 0.35 |
| C40A U41C U72G | 0.17 |
| U41A G53C A64G A65G | 0.16 |
| U41A A45U U48C | 0.22 |
| U41C A47G G53A U69A | 0.72 |
| C39U U54G U80C | 0.38 |
| C40A U41C U48A U72C C81A | 0.12 |
| C39U U41C U80C | 1.09 |
| U41A U43C G52A | 0.09 |
| C39U A45G A57U U78G | 0.16 |
| U41C U48C U54C A57G A65U C79U | 0.22 |
| U41C A57G U58C U66C U72A | 0.2 |
| U41A A47G A56G | 0.23 |

| Variant | self-cleavage |
| --- | --- |
| U41C A56G A77G | 0.87 |
| U41A G52A U80G | 0.33 |
| C40U U48C A56G | 0.29 |
| U41C U49A U58A | 0.34 |
| C40U U41C U80C | 0.51 |
| U41A A47U U54A U58A | 0.33 |
| C39U A64G U69C | 0.13 |
| U41C C44A A57G | 0.19 |
| U41A C44U U51G | 0.19 |
| U41C A45G U51A | 0.7 |
| U41C A45G A57G U72C A75G | 0.51 |
| U41C A56G U60C U80C | 0.49 |
| U41C A47U U51C | 0.33 |
| U41A A56G U72A | 0.05 |
| C40U U74C U78C | 1.06 |
| U41C U43A A47G U51A U72C | 0.45 |
| U41A G53U A57G U60C | 0.12 |
| U41A A56U U76A | 0.08 |
| C40U U49C G52C A64U | 0.1 |
| C39U U43A A45C | 0.11 |
| U41C A45G U48C | 0.36 |
| U41A U60A U66C | 0.24 |
| C40A A56C U60C | 0.08 |
| C39U U43C A56G U58C | 0.14 |

| Variant | self-cleavage |
| --- | --- |
| U41C U43C A77U | 0.36 |
| U41A A45G U51G A56G U66C U78C | 0.11 |
| U41A A47G U66C U80A | 0.07 |
| U41C G42U U43C | 0.11 |
| U41C G55C U60C | 0.24 |
| C40G A56G U67C | 0.14 |
| C40U G55A U66C U72C U74A | 0.11 |
| C40A U51C G52A U54C U60C | 0.13 |
| C40A U51A U69G | 0.64 |
| U41A U43C A64G U78C | 0.07 |
| U41C A47U A64U U78C | 0.17 |
| C40U A65G U67C | 0.15 |
| U41A A45U U69C | 0.12 |
| C40A U41A A57G A65U U74C | 0.22 |
| U41C U43C U60C | 0.1 |
| U41A A47U U67A | 0.04 |
| U41C U51C A57G | 0.88 |
| U41A A56U U69C | 0.1 |
| U41C A56U U80C | 0.92 |
| U41C A64C U66C C71U | 0.54 |
| U41A U51C A64U U69A | 0.09 |
| U41C U49C U66C U67C | 0.12 |
| U41A U69C C71U | 0.1 |
